Screen size: about 420,000 compounds; about 50,000 (12%) were called active. The shares of active, inactive and inconclusive entries below differ from those in the screen. Calls follow the shape of the dose curve; as a rule, active = well fitted inhibition curve with a large enough effect; inconclusive = small, poorly fitted or top-dose-only effect; inactive = flat fitted curve, though single readings scatter. Potencies of inconclusive entries are left out as doubtful fits.
Test: qHTS for Inhibitors of human tyrosyl-DNA phosphodiesterase 1 (TDP1): qHTS in cells in presence of CPT; also: nearly all actives have a fitted effect of over 55% in size
Conditions: chicken DT40 Tdp1-/-;hTDP1 cells + 20 nM CPT, ATP luminescence, 48 h; series mostly up to 46.2 µM
How it was run: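 Cell growth measured by CellTiter-Glo luminescence after a minimum 48 h, 37 C compound exposure with 20 nM CPT in Tdp1-knockout DT40 cells stably expressing hTDP1, seeded 400/well; qHTS titration format.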
Potency is read from the fitted curve at half-maximal effect; tags tell the direction and shape of the fitted curve.

Compound | Potency
N#Cc1ccccc1NC(=O)CSc1nnc(-c2ccc(F)cc2)n1-c1ccccc1 | inconclusive [inhibitor, single point]
Cc1ccc(C(=O)N/N=C/c2nc3ccccc3n2C)cc1 | inconclusive [inhibitor, single point]
O=S(=O)(Nc1cccc2c1CCCC2)c1ccc(Cl)cc1 | inconclusive [inhibitor, single point]
CC(=O)Nc1cc(C(=O)NCc2ccc(F)cc2)ccc1Sc1ccc(F)cc1 | inconclusive [inhibitor, single point]
COc1cccc2[nH]c3c(N4CCCC(C)C4)ncnc3c12 (stereo not given) | inconclusive [inhibitor, single point]
CC(=O)OC1CC[C@@]2(C)C(CCC3C2CC(=O)[C@@]2(C)C3CC3CC(C)=CC(=O)C32)C1 (stereo not given in full) | active: 18.4 µM
CCOC(=O)c1c(NC(=O)c2ccc(OCC)c(Br)c2)sc2c1CCCC2 | inactive
C=CCO/N=C/C1=C(O)C(C(=O)OC)C(C)(C)CC1=O (stereo not given) | inactive
CN(Cc1ccccc1)C(=O)c1[nH]cnc1C(=O)NCCCCCNC(=O)OC(C)(C)C | inconclusive [inhibitor, partial curve]
CC(C)(C)NCCOCCOc1ccc(Cl)cc1C(C)(C)C | inconclusive [inhibitor, single point]
COc1ccc(CC(=O)NCC(c2cccs2)S(=O)(=O)c2ccc(F)c(C)c2)cc1 (stereo not given) | inconclusive [inhibitor, partial curve]
O[C@H]1C[C@H](c2ccc(Cl)cc2)N(Cc2cccs2)C[C@@H]1n1cc(-c2ccc(F)cc2)nn1 | inconclusive [inhibitor, single point]
COc1ccc(Nc2ncnc3ccc(Br)cc23)c(OC)c1 | inconclusive [inhibitor, partial curve]
C/C(=N\Nc1nc(C)cc(-c2ccccc2)n1)c1cccc(N)c1 | inconclusive [inhibitor, single point]
O=C(Nc1ccc(Cl)cn1)C1CCCN1S(=O)(=O)c1cccc2ccccc12 (stereo not given) | inconclusive [inhibitor, single point]
O=c1c2cc3c(cc2nc2sc(Nc4cccc([N+](=O)[O-])c4)nn12)OCO3 | inactive
COc1ccccc1NC(=O)Cn1cnc2sc(C(=O)Nc3cc(OC)c(OC)c(OC)c3)c(C)c2c1=O | inconclusive [inhibitor, single point]
Cc1cc(C)c(C)c(S(=O)(=O)N2CCC(C(=O)NCCCN3CCOCC3)CC2)c1C | inactive
O=C(NCCc1ccccc1)N1c2ccccc2Sc2ccccc21 | inconclusive [inhibitor, single point]
CC(Sc1nc(C(C)(C)C)cc(-c2ccccc2)c1C#N)C(=O)Nc1ccccc1 (stereo not given) | inconclusive [inhibitor, single point]

Compound | Potency
O=C(Nc1ccc(Cl)cc1Cl)c1ccc2c(=O)n3c(nc2c1)CCC3 | inconclusive [inhibitor, single point]
Cc1ccccc1-c1cnc(C(O)c2ccc(F)cc2)[nH]1 (stereo not given) | inconclusive [inhibitor, single point]
COc1ccccc1C(=O)N/C(=C\c1cn(S(=O)(=O)N(C)C)c2ccccc12)C(=O)NCCCn1ccnc1 | inconclusive [inhibitor, single point]
COc1ccc(OC)c(C(=O)NC(CC(N)=O)c2ccc(N3CCC(N4CCCCC4)CC3)c([N+](=O)[O-])c2)c1 (stereo not given) | inconclusive [inhibitor, single point]
COc1cccc(Cn2c(=O)cnc3cnc(N4CCN(C)CC4)nc32)c1 | inconclusive [inhibitor, single point]
CCOC(=O)C1=CN(Cc2cccc(-c3ccc4c(c3)OCO4)c2)S(=O)(=O)N(C)C1C (stereo not given) | inconclusive [inhibitor, single point]
Cc1ccccc1CSc1ncc(Cl)c(C(=O)Nc2nc3ccc(F)cc3s2)n1 | inconclusive [inhibitor, single point]
C[C@@H]1C(c2ccccc2)=NN(c2ccccc2)[C@H]1C(=O)N1CCOC1=O | inconclusive [inhibitor, single point]
Cc1c(C(=O)OCC(=O)N2CC(C)CC(C)C2)oc2ccccc12 (stereo not given) | inconclusive [inhibitor, single point]
CCOC(=O)c1cn(Cc2ccc(C)cc2)c2cc(F)ccc2c1=O | inconclusive [inhibitor, single point]
COc1ccccc1C(=O)Nc1nc2n(n1)C(c1ccc(F)cc1)C=C(c1ccc(Cl)cc1)N2 (stereo not given) | inconclusive [inhibitor, single point]
O=C(NCc1ccc2c(c1)OCO2)c1sccc1Br | inactive
Cn1c(SCC(=O)c2ccccc2)nnc1-c1ccc(O)cc1 | inactive
Cc1cccc(CN2CCC(CNC(=O)Cn3ncc4c([nH]c5ccc(C)cc54)c3=O)CC2)c1 | inconclusive [inhibitor, full curve, poor fit]
CC(=O)Nc1ccc(CN2CCC(Oc3ccc(C(=O)N4CCCC4)cc3)CC2)cc1 | inactive
CCOC(=O)c1ccc(N=Cc2nc3ccccc3n2C)cc1 | inconclusive [inhibitor, single point]
OC(CN1CCN(c2cccc(Cl)c2)CC1)c1ccc(F)cc1 (stereo not given) | inconclusive [inhibitor, single point]
O=C(Nc1ccc(F)cc1)c1ccc(C(=O)N2CCCC(O)C2)cc1 (stereo not given) | inconclusive [inhibitor, single point]
Cc1cc(NC(=O)CCN2C(=O)/C(=C\c3ccccc3Cl)SC2=S)no1 | inconclusive [inhibitor, single point]
O=C(COC(=O)/C=C/c1cn(-c2ccccc2)nc1-c1ccc2c(c1)OCCO2)NC1CCS(=O)(=O)C1 (stereo not given) | inconclusive [inhibitor, single point]

Source: PubChem BioAssay AID686979 (National Center for Advancing Translational Sciences (NCATS), 2013)
